Assay results from US7049395 (YALE UNIVERSITY, dated 2006).

Assays:
NEMO-(1-302) = target: T1, NEMO-(1-302) (human, UniProt Q9Y6K9 1-302); assay: GST pull-down of [35S]-labelled NEMO truncations
T1 construct: range 1-302; [35S]-labelled in vitro translated; also transfected in COS or HEK293 cells
Text: (§1) Equal amounts of each protein were used for subsequent GST pull-down analyses.

NEMO-(44-419) = target: T2, NEMO-(44-419) (human, UniProt Q9Y6K9); assay: GST pull-down of [35S]-labelled NEMO truncations
T2 construct: range 44-419; [35S]-labelled in vitro translated; also transfected in COS or HEK293 cells
Text: as §1

NEMO-(197-419) = target: T3, NEMO-(197-419) (human, UniProt Q9Y6K9 197-419); assay: GST pull-down of [35S]-labelled NEMO truncations
T3 construct: range 197-419; [35S]-labelled in vitro translated; also transfected in COS or HEK293 cells
Text: as §1

NEMO-(86-419) = target: T4, NEMO-(86-419) (human, UniProt Q9Y6K9 86-419); assay: GST pull-down of [35S]-labelled NEMO truncations
T4 construct: range 86-419; [35S]-labelled in vitro translated; also transfected in COS or HEK293 cells
Text: as §1

IKKβ-(1-733) = target: T5, IKKβ-(1-733) (human, UniProt O14920 1-733); assay: GST pull-down of [35S]-labelled in vitro translated protein
T5 construct: in vitro translated, [35S]-labelled; also transfected in HeLa cells for the reporter assay
T5 sequence (looked up): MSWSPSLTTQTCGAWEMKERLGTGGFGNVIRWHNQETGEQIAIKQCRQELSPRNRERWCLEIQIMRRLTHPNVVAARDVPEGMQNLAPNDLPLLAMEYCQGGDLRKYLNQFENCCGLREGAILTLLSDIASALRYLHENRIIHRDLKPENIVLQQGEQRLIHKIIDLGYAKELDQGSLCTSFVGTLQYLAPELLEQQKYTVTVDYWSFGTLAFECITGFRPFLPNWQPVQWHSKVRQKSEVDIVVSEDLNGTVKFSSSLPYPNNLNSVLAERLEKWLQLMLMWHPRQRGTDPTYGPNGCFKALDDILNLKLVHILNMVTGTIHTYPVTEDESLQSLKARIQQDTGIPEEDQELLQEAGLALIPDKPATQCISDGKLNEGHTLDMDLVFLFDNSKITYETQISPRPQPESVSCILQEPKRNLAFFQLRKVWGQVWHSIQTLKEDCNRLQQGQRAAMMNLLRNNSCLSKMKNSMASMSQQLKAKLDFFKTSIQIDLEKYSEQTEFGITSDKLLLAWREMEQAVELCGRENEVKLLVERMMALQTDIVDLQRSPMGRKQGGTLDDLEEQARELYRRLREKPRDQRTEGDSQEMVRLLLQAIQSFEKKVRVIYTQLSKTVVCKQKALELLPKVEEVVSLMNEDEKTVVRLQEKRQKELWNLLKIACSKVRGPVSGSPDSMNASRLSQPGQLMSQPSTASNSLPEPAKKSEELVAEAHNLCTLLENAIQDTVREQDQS

IKKβ-(1-707) = target: T6, IKKβ-(1-707) (human, UniProt O14920 1-707); assay: as above
T6 construct: range 1-707; in vitro translated, [35S]-labelled
T6 sequence (looked up): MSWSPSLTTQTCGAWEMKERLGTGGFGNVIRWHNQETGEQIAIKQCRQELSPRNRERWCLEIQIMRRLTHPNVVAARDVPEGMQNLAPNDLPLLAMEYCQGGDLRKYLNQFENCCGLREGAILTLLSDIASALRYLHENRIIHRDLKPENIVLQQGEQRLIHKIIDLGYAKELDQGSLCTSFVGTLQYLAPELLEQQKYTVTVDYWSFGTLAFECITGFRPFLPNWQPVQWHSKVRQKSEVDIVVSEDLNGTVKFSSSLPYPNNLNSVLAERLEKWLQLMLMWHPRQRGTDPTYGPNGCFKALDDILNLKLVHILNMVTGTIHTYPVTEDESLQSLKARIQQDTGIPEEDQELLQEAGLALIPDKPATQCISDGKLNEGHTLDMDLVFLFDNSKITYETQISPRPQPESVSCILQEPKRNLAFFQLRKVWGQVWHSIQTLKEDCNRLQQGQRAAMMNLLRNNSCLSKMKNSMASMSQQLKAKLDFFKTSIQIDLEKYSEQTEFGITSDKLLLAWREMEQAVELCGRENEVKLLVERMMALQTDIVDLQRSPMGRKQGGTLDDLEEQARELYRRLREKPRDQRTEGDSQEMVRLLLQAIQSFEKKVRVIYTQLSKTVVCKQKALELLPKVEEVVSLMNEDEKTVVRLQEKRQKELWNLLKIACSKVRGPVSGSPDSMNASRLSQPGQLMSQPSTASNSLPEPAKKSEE

IKKβ-(1-662) = target: T7, IKKβ-(1-662) (human, UniProt O14920 1-662); assay: as above
T7 construct: range 1-662; in vitro translated, [35S]-labelled
T7 sequence (looked up): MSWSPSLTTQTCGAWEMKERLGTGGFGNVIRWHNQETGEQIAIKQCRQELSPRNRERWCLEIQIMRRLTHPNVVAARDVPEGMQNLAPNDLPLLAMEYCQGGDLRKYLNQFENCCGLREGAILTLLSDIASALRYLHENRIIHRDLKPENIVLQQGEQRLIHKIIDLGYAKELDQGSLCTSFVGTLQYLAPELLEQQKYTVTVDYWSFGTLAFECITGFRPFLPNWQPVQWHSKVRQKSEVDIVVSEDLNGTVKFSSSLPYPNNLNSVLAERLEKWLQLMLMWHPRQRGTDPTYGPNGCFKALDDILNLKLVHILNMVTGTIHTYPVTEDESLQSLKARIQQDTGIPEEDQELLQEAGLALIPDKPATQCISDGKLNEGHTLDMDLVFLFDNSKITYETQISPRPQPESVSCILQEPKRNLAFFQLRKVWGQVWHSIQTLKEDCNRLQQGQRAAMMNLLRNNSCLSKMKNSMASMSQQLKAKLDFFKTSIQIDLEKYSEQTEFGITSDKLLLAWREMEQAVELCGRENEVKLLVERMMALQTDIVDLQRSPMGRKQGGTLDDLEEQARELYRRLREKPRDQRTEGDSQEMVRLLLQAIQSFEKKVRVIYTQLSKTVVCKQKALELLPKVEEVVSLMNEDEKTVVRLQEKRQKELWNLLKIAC

IKKβ-(307-756) = target: T8, IKKβ-(307-756) (human, UniProt O14920 307-756); assay: as above
T8 construct: in vitro translated, [35S]-labelled
T8 sequence (looked up): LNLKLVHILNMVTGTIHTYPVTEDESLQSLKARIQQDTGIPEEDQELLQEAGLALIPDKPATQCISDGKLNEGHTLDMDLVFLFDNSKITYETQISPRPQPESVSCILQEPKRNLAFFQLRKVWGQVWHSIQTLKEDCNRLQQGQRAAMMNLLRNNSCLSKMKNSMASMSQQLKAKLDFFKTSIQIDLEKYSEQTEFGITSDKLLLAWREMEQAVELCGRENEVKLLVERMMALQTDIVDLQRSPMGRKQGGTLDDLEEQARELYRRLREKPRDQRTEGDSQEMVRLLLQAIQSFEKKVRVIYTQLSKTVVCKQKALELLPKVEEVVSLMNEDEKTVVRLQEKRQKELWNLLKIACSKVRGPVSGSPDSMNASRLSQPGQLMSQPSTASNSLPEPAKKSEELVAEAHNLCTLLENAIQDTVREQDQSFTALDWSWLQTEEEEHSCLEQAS

IKKβ-(458-756) = target: T9, IKKβ-(458-756) (human, UniProt O14920 458-756); assay: as above
T9 construct: in vitro translated, [35S]-labelled
T9 sequence (looked up): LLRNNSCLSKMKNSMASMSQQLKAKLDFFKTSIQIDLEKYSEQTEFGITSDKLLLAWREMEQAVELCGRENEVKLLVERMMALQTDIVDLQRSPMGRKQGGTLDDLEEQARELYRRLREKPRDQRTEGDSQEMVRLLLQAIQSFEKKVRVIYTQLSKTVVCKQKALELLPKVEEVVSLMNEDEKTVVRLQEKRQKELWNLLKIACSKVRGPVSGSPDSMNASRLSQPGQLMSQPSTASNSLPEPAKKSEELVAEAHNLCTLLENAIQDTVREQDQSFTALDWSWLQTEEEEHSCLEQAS

IKKβ-(486-756) = target: T10, IKKβ-(486-756) (human, UniProt O14920 486-756); assay: as above
T10 construct: in vitro translated, [35S]-labelled
T10 sequence (looked up): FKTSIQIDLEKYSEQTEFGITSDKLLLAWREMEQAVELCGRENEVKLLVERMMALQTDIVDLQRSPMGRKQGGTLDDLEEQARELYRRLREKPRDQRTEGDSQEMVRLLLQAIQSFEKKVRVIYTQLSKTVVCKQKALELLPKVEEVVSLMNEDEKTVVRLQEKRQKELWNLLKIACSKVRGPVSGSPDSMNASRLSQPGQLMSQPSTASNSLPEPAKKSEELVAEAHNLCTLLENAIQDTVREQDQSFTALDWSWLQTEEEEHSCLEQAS

IKKβ-(1-456) = target: T11, IKKβ-(1-456) (human, UniProt O14920 1-456); assay: as above
T11 construct: in vitro translated, [35S]-labelled
T11 sequence (looked up): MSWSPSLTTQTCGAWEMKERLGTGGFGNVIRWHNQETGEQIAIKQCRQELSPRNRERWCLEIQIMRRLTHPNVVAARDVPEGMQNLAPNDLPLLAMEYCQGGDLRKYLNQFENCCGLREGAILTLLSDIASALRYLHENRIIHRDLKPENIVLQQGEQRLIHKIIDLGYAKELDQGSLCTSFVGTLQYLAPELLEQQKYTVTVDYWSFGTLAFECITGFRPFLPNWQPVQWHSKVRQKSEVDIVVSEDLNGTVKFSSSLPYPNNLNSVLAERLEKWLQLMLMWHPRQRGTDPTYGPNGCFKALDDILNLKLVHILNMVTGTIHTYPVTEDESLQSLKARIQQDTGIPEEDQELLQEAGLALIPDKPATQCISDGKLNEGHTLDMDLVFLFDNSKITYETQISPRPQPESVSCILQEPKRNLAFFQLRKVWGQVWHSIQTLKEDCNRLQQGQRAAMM

IKKβ-(1-605) = target: T12, IKKβ-(1-605) (human, UniProt O14920 1-605); assay: as above
T12 construct: in vitro translated, [35S]-labelled
T12 sequence (looked up): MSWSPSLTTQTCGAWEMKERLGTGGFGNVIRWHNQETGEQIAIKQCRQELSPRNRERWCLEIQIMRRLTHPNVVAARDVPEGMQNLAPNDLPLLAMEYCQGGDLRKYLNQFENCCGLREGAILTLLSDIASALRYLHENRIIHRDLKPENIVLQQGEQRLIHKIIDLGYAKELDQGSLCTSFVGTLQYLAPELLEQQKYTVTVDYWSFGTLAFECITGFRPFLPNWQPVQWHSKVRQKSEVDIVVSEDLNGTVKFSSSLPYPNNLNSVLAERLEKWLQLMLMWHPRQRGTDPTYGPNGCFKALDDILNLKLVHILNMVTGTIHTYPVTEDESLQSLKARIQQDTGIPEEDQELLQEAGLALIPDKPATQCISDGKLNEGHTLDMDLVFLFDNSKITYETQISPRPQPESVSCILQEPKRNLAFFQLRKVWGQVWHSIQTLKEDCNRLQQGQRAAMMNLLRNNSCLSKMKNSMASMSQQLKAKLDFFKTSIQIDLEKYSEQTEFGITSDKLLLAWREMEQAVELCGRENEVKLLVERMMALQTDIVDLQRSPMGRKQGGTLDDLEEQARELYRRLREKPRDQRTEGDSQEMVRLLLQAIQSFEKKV

IKKβ-(1-644) = target: T13, IKKβ-(1-644) (human, UniProt O14920 1-644); assay: as above
T13 construct: in vitro translated, [35S]-labelled
T13 sequence (looked up): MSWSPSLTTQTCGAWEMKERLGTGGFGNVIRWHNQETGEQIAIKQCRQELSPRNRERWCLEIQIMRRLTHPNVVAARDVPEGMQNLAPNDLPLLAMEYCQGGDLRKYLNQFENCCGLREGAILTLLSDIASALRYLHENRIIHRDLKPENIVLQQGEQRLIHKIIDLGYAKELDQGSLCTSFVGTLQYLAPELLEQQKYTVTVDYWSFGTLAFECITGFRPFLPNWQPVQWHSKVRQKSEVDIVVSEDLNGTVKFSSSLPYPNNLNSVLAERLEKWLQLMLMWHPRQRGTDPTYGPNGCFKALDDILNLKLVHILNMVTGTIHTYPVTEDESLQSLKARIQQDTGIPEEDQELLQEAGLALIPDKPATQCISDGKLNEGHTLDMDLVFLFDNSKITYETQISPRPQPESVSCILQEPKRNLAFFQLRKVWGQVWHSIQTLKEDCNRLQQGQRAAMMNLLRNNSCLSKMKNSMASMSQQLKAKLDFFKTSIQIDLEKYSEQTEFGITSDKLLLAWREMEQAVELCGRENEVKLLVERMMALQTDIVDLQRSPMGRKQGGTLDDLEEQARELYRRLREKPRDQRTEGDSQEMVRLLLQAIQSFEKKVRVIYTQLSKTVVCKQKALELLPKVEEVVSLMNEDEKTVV

Measured: binding result

B1: GST alone (other)
chain: not shown
notes: control bait in the GST pull-downs
no binding: NEMO-(1-302) | NEMO-(44-419) | NEMO-(197-419) | NEMO-(86-419) | IKKβ-(1-733) | IKKβ-(1-707) | IKKβ-(1-662) | IKKβ-(307-756) | IKKβ-(458-756) | IKKβ-(486-756) | IKKβ-(1-456) | IKKβ-(1-605) | IKKβ-(1-644)
